# Laboratory results taken from PubChem BioAssay AID504832 (National Center for Advancing Translational Sciences (NCATS), 2011).
# Values joined by “and” are separate entries in the source; they are usually repeats but may differ in a detail not shown here. Identical values can stand only once. Among all 310,000 compounds or so, about 18,000 (5.8%) were called active. The inconclusive results got no clear call from the source; some entries with a clear call stand among them for comparison. The call rests on the fitted dose curve; in most records, active means well fitted inhibition curve with a large enough effect; inconclusive means small, poorly fitted or top-dose-only effect, or another doubt; inactive means no such curve, though single readings can be large or run the other way. Potencies beside an inconclusive call are fits to weak or partial responses and may not hold up.
# Experiment: Primary qHTS for delayed death inhibitors of the malarial parasite plastid, 48 hour incubation
# Settings: P. falciparum luciferase growth in erythrocytes; series mostly up to 28.7 µM; activity change, negative = inhibition: at the top concentration
# Outline: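 Firefly luciferase activity from engineered P. falciparum reports growth; inhibitors lower the luminescent signal. Cultures contained 2% hematocrit erythrocytes at 0.1% final parasitemia.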
# On the % scale 0 is the no-effect control and ±100 the full control effect; potency means the concentration at half of the fitted maximal effect; tags describe the fitted curve by direction and shape.
SMILES,"activity change, negative = inhibition",Potency
O=C(Nc1ccc(C(F)(F)F)cc1)C1(c2ccccc2)CC1,inactive: 4.15%,–
CCCCOc1ccc(C(=O)N/C(=C/C=C/c2ccccc2)C(=O)NC)cc1,inactive: 36.9%,–
CCOP(=O)(OCC)c1nc(-c2ccc(Cl)cc2)oc1NCc1ccccc1,–,"inconclusive: 11.7 µM [inhibitor, partial curve]"
C=CCn1c(SCc2c(C)noc2C)nc2sc3c(c2c1=O)CCCCC3,–,active: 1.85 µM
O=C1CC(=C(c2ccccc2)c2ccccc2)C(=O)N1CCCCN1CCN(c2cccc(Cl)c2)CC1,–,"inconclusive: 18.5 µM [inhibitor, single point]"
CSCCC(/C(O)=C(\C#N)c1nc2ccccc2[nH]1)N1C(=O)c2ccccc2C1=O (stereo not drawn),–,"inconclusive: 18.5 µM [inhibitor, single point]"
CCCN(CC(=O)Nc1ccccc1OC)C(=O)c1cc(S(=O)(=O)NCc2ccccc2)ccc1C,–,"inconclusive: 11.7 µM [inhibitor, partial curve]"
O=C(Nc1cccc2ccccc12)c1ccc([N+](=O)[O-])o1,–,"inconclusive: 10.4 µM [inhibitor, partial curve, poor fit]"
CCN=C(N/N=C/c1ccc([N+](=O)[O-])cc1)SC,inactive: 54.7%,–
O=C(/C=C/c1ccc(F)cc1)Nc1nc2ccccc2[nH]1,inactive: 251%,–
CN(C)c1ccc(/C=C2/C(=O)N(c3ccc([N+](=O)[O-])cc3)N=C2N2CCOCC2)cc1,–,"inconclusive: 13.1 µM [inhibitor, partial curve]"
CCNS(=O)(=O)c1ccc(CCC(=O)N2CCN(c3ccccc3)CC2)cc1,inactive: -15.7%,–
Cc1ccc(C)c(S(=O)(=O)N2CCCC2CNC(=O)C(=O)NCCc2ccccc2)c1 (stereo not drawn),–,"inconclusive: 11.7 µM [inhibitor, single point]"
CCn1c(-c2cc(Br)cc(OC)c2O)nc2cc(S(=O)(=O)N(C)C)ccc21,–,"inconclusive: 5.22 µM [inhibitor, partial curve]"
Cc1cc(Cl)c(S(N)(=O)=O)cc1OCC(=O)NC1CCCCC1,inactive: 41.4%,–
S=C(Nc1ccc(Cl)cc1)NC1CC2CCCC(C1)N2C1CC1 (stereo not drawn),–,active: 10.4 µM
Brc1ccc2oc(-c3ccn[nH]3)cc2c1,inactive: 335%,–
CCN(CC)C(=O)c1sc2c(c1C)c(=O)n(-c1ccc(OC)cc1OC)c(=O)n2CC(=O)c1ccccc1,–,"inconclusive: 18.5 µM [inhibitor, single point]"
CC(=O)c1c(C(C)=O)c(C)n(-c2ccc(N)c(C)c2)c1C,inactive: -19.4%,–
Cc1ccc(-n2c(C)cc(/C=N/NC(=O)CC3(C)OCCO3)c2C)cc1,–,active: 13.1 µM
CC(=O)Nc1ccc(C(=O)CS(=O)(=O)c2ccc(C)cc2)cc1,inactive: 13.2%,–
O=C(Nc1ccc2oc(-c3cccnc3)nc2c1)c1ccc([N+](=O)[O-])o1,–,"inconclusive: 6.57 µM [inhibitor, partial curve]"
CCOC(=O)c1ccc(NC(=O)CN2C(=O)NC3(CCCCCCC3)C2=O)cc1,–,"inconclusive: 11.7 µM [inhibitor, single point]"

SMILES,"activity change, negative = inhibition",Potency
COc1ccc(CNS(=O)(=O)c2c(C(=O)N3CCCCC3)c(C)n(C)c2C)cc1,inactive: 11.5%,–
COC(=O)C1CCN(c2nc3ccccc3nc2C(C#N)C(=O)NCCc2ccccc2)CC1 (stereo not drawn),inactive: -2.12%,–
Cc1ccc(N2C(=O)Nc3cc(Cl)c(Cl)cc3N2O)cc1Cl,–,"inconclusive: 0.0029 µM [inhibitor, full curve, poor fit]"
CCOc1ccc(OCC)c(NC(=O)CN2CCN(c3cc(C)ccc3C)CC2)c1,–,"inconclusive: 9.28 µM [inhibitor, partial curve, poor fit]"
CCN(CC)C(=O)Cn1cc(S(=O)(=O)CC(=O)Nc2ccc(OC)c(OC)c2)c2ccccc21,–,"inconclusive: 4.15 µM [inhibitor, partial curve, poor fit]"
Cc1ccccc1COc1ccc(/C=N/NC(=O)c2nnn(-c3nonc3N)c2CN2CCC(C)CC2)cc1,–,"inconclusive: 10.4 µM [inhibitor, single point]"
O=c1cc(-c2ccccc2)[nH]c2cc(Cl)ccc12,–,active: 4.65 µM
CCOC(=O)c1c(NC(=O)CSc2nnc(-c3ccccc3)n2CC)sc(C(C)=O)c1C,–,"inconclusive: 11.7 µM [inhibitor, partial curve]"
O=C(COc1ccccc1)Nc1nc2c(s1)CCCC2,inactive: 120%,–
COc1ccccc1NS(=O)(=O)c1ccc(C(=O)NCCCN2CCOCC2)cc1,inactive: -18.1%,–
O=C(NNC(=O)c1cc2ccccc2cc1O)Nc1ccccc1F,–,"inconclusive: 14.7 µM [inhibitor, single point]"
O=C(CN1CCN(c2ccccc2O)CC1)Nc1ccc([N+](=O)[O-])cc1Br,–,"inconclusive: 18.5 µM [inhibitor, single point]"
CN(C)S(=O)(=O)c1ccc2c(c1)nc(CCC(=O)NCCc1ccc(Cl)cc1)n2C,–,"inconclusive: 10.4 µM [inhibitor, partial curve]"
O=C(CCC(=O)c1ccc(F)cc1)NCC1(N2CCCCC2)CCCCC1,–,"inconclusive: 2.94 µM [inhibitor, single point]"
CC(C)Nc1nc(-c2ccccc2)nnc1-c1ccccc1,–,"inconclusive: 14.7 µM [inhibitor, partial curve]"
O=C(OC1CCCCC1=O)c1ccc(F)c(S(=O)(=O)N2CCOCC2)c1 (stereo not drawn),–,"inconclusive: 2.33 µM [inhibitor, single point]"
COc1cc(/C=C/C(=O)CC(=O)/C=C/c2ccc(O)c(OC)c2)ccc1O,–,"inconclusive: 19 µM [inhibitor, single point] and inconclusive: 18.5 µM [inhibitor, single point]"
Cc1ccc(NC(=O)c2cc(C(=O)c3cc(Cl)ccc3O)cn(-c3ccc(C)cc3)c2=O)cc1,–,active: 0.329 µM
O=C(N[C@@H](Cc1ccccc1)c1nc2ccccc2[nH]1)c1cc([N+](=O)[O-])ccc1Cl,–,active: 14.7 µM
CC(=O)c1ccc(NC(=O)C(C)Sc2nnc3ccccn23)cc1 (stereo not drawn),–,"inconclusive: 9.28 µM [inhibitor, partial curve]"
Cc1cccc(OCC(=O)N/N=C/CC(C)c2ccccc2)c1C (stereo not drawn),inactive: 10.3%,–
CCOC(=O)c1c(-c2cccc([N+](=O)[O-])c2)csc1NC(=O)C1CCCCC1,–,"inconclusive: 18.5 µM [inhibitor, single point]"
O=C(CSc1ncn[nH]1)Nc1ccccc1-c1ccccc1,–,"inconclusive: 18.5 µM [inhibitor, single point]"

SMILES,"activity change, negative = inhibition",Potency
N#C/C(=C\C=C\c1ccccc1[N+](=O)[O-])C(=O)NCc1ccccc1,–,active: 3.7 µM
CN(C)CC(C)(C)CNS(=O)(=O)c1ccc(Cl)c(Cl)c1,–,"inconclusive: 18.5 µM [inhibitor, single point]"
O=c1nc(Nc2ccc(Br)cc2)sc2ccc([N+](=O)[O-])cc12,–,"inconclusive: 20.8 µM [inhibitor, partial curve, poor fit]"
COc1ccccc1NC(=O)Cn1c(CCC(=O)O)ccc1-c1ccc(C)cc1,–,"inconclusive: 3.7 µM [inhibitor, partial curve, poor fit]"
O=C(OC(C(=O)NC1CCCC1)c1cccnc1)C1=Cc2ccccc2OC1 (stereo not drawn),–,"inconclusive: 1.17 µM [inhibitor, partial curve, poor fit]"
Cc1ccc(NC(=O)O/N=C2\CCCCC2c2ccc([N+](=O)[O-])cc2[N+](=O)[O-])cc1 (stereo not drawn),–,"inconclusive: 10.4 µM [inhibitor, single point]"
CN1/C(=C\C(=O)Nc2cccc(Cl)c2)C(C)(C)c2ccccc21,–,"inconclusive: 10.4 µM [inhibitor, single point]"
Cc1cc(C)c(OCCCCN2CCNCC2)c(C)c1,–,"inconclusive: 14.7 µM [inhibitor, partial curve]"
CC1CCCCN1Cc1c(O)ccc2c(=O)c(-c3nc4ccccc4s3)c(N)oc12 (stereo not drawn),–,active: 0.828 µM
COC(=O)N/N=C\c1ccccc1OC/C=C/c1ccccc1,–,"inconclusive: 18.5 µM [inhibitor, single point]"
c1ccc(Cn2nnnc2CN2CCN(c3ncccn3)CC2)cc1,inactive: -9.15%,–
CC1CCCCN1S(=O)(=O)c1ccc(N(C(=O)c2cnccn2)C(C(=O)NC2CCCCC2)c2cccs2)cc1 (stereo not drawn),–,active: 11.7 µM
C/C(=N\S(=O)(=O)c1ccc(C)cc1)N1CCN(S(=O)(=O)c2ccccc2)C1,inactive: 45.7%,–
C=CCOC(=O)c1[nH]c2c(c1C)C(=O)CC(c1ccco1)C2 (stereo not drawn),–,active: 5.22 µM
CCN(CC)CC(=O)N1CCCC(N2CCN(c3cccc(C(F)(F)F)c3)CC2)C1 (stereo not drawn),inactive: 2.12%,–
O=C(NCc1ccc(Cl)cc1)c1ccc(CSc2nc3ccncc3[nH]2)cc1,–,"inconclusive: 10.4 µM [inhibitor, single point]"
OCC1(Cc2ccccc2)CCN(C2CCN(c3ccccc3F)CC2)CC1,–,"inconclusive: 14.7 µM [inhibitor, partial curve, poor fit]"
Clc1cccc(Cl)c1CSc1nnc(-c2sccc2-n2cccc2)o1,–,"inconclusive: 10.4 µM [inhibitor, single point]"
CCN(CC)C(=O)CC(c1ccc(OC)cc1)c1c(O)cc(OC)cc1OC (stereo not drawn),–,"inconclusive: 10.4 µM [inhibitor, single point]"
Cn1ncc(Cl)c1C(=O)NCc1ccco1,inactive: 10.2%,–
CC1CCN(C(=O)CSc2nnc(-c3cc4ccccc4cc3O)n2Cc2ccco2)CC1,–,active: 11.7 µM
O=C(CSc1nc(C2CC2)nc2ccccc12)N1c2ccccc2Sc2ccccc21,–,"inconclusive: 1.85 µM [inhibitor, single point]"
